Results taken from article PMC10219652.

Columns and labels:
GFP-SNX32 = molecular target: T1, GFP-SNX32 (UniProt Q86XE0); assay: co-IP; GBP-IP of GFP-tagged SNX proteins from lysates of transfected cells (HeLa by the text; HEK293T by the legends of Figure 6A, C and I; the legend of Figure 6I also says GFP trap); endogenous TfR, CIMPR, SNX1 or BSG detected by immunoblot; values are the ratio of prey to GFP band intensity
T1 sequence: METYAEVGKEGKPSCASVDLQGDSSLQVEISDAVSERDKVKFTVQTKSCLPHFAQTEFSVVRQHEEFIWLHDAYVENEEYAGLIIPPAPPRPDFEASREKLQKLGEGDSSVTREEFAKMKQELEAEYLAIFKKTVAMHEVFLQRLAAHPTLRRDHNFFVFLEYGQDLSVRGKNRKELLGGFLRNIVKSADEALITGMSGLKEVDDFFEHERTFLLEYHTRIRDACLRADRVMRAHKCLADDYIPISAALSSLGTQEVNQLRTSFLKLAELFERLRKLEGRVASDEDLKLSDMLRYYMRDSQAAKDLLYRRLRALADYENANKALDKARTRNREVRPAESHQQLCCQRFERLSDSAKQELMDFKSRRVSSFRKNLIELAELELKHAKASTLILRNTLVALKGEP

GFP-SNX1 = GFP-SNX1 (UniProt Q13596); assay: as above
Chain of UniProt Q13596 (Q13596 whole entry): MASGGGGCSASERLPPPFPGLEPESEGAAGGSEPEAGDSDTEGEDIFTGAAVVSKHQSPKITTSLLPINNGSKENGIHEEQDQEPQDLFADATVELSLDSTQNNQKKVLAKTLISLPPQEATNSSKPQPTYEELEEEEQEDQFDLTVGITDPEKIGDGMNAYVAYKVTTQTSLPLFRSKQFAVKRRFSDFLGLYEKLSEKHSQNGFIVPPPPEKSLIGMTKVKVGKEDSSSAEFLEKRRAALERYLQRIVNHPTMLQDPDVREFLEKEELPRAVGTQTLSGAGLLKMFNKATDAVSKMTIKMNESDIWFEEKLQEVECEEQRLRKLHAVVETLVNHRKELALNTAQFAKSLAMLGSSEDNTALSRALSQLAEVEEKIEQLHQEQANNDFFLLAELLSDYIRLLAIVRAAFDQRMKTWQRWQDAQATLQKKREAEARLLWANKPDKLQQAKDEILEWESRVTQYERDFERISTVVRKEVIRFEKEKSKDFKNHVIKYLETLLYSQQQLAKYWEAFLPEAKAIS

ratio of CIMPR to GFP band intensity (GFP-SNX32)	ratio of CIMPR to GFP band intensity (GFP-SNX1)	Substance
0.38	–	Cation-Independent Mannose-6-Phosphate Receptor (CIMPR) (a stretch of the chain, no sequence given)
–	0.12	Cation-Independent Mannose-6-Phosphate Receptor (CIMPR) (a stretch of the chain, no sequence given) (receptor; other documents disagree on this pair)
